# Data: publication PMC7480101
# Chains of the proteins cited; added tags and fusions are not shown.
# UniProt Q96CV9: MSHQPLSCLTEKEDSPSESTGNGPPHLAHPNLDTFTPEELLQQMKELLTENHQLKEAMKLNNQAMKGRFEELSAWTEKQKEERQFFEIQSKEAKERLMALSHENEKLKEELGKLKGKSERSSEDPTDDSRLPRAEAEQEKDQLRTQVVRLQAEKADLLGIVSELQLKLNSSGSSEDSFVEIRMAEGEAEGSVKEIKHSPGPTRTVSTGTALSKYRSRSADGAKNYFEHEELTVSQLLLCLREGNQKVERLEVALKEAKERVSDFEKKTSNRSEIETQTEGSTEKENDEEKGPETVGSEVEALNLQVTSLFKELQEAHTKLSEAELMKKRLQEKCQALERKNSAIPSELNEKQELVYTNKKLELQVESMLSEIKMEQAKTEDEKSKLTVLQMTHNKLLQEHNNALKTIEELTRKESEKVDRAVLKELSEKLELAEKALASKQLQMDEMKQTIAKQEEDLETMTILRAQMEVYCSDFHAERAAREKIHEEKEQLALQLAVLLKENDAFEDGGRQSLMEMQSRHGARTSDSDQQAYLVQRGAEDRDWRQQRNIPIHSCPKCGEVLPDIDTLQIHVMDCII
# UniProt Q14596: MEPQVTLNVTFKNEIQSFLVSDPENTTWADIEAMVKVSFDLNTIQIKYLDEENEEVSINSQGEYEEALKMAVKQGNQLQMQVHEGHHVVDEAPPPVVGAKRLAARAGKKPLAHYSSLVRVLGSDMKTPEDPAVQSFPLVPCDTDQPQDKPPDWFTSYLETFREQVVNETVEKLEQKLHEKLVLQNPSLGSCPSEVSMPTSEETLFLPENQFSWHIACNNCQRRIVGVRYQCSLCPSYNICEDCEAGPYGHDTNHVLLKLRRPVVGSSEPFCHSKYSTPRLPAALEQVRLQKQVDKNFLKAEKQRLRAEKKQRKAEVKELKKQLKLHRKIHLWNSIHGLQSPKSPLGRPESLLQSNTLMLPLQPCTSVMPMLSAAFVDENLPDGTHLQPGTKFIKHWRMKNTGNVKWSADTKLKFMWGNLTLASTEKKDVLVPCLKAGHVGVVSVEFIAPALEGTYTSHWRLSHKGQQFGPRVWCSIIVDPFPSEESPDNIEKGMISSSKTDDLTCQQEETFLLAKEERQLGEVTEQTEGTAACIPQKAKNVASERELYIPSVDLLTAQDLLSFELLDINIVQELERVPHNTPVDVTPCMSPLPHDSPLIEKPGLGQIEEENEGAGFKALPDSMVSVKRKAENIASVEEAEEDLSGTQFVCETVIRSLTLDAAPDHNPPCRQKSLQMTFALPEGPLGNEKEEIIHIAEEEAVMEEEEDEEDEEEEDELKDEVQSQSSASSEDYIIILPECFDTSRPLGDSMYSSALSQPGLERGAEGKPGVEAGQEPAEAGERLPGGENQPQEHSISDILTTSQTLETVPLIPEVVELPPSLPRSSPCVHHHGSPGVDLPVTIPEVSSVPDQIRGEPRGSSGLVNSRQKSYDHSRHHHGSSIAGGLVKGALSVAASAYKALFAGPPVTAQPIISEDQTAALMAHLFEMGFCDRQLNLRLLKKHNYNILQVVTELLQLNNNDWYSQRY
# UniProt Q6ZNE5: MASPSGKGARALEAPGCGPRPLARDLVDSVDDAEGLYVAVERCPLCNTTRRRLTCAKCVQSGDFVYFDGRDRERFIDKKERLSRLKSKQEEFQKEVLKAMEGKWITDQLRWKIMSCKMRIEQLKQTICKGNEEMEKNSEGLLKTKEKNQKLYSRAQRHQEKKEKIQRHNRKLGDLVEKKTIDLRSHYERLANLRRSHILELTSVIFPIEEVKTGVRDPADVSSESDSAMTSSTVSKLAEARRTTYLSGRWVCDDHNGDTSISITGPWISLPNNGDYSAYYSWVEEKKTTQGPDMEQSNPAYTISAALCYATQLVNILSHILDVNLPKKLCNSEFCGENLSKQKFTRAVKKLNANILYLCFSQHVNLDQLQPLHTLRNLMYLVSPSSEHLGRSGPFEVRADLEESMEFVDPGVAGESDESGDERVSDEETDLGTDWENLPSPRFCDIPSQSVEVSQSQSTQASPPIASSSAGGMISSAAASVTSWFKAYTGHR
# UniProt Q676U5: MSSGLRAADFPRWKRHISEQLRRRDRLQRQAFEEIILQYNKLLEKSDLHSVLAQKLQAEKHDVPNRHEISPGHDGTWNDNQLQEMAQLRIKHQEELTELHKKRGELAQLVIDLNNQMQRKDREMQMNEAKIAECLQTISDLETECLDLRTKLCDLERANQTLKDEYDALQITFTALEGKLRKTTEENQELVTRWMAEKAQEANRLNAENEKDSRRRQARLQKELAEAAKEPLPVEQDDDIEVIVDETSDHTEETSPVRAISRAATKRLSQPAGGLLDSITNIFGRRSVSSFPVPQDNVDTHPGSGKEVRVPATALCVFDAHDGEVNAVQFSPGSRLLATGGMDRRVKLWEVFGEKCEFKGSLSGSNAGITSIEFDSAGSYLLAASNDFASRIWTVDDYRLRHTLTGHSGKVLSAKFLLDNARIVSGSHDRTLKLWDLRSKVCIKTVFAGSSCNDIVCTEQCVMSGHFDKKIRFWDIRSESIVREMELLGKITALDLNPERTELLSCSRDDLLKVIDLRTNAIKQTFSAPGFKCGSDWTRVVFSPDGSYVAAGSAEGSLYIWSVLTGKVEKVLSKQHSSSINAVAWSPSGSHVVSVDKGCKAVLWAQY
# These are yes or no findings as the source states them, for the method shown. Some entries that bind do so weakly or less than the wild type.
# Experiments:
# Assay in all cases: Fluoppi (phase-separated fluorescent foci in cells); hAG-tagged autophagy adaptor and HA-Ash-6Ub transiently co-expressed in HeLa (WT, Penta KO, FIP200 KO, ATG5 KO, ATG9A KO) or HCT116 (WT, TBK1-/-) cells; foci formation and incorporation of a third protein into the foci read by immunostaining and confocal microscopy; some samples with 2 µM BX-795 for 15 h
# [1] = target: hAG-OPTN (human) (UniProt Q96CV9)
# [2] = target: hAG-NBR1 (human) (UniProt Q14596)
# [3] = target: hAG-p62 (human) (UniProt Q13501)
Substance,binding [1],binding [2],binding [3]
3FLAG-ATG14 (from UniProt Q6ZNE5 1-492),no binding,,
3FLAG-GABARAP (from UniProt O95166 1-117),,binds,
3FLAG-GABARAPL2 (from UniProt P60520 1-117),,binds,binds
3FLAG-LC3A (from UniProt Q9H492 1-121),,binds,binds
3FLAG-LC3C (from UniProt Q9BXW4 1-126),,binds,binds
ATG16L1 (from UniProt Q676U5 1-607),no binding,,
